# Several values for one entry are separate records, joined by “and”; a condition that tells them apart may be missing. Identical values can stand only once. Inconclusive means that the source gave no clear call. Such entries were picked first, then a sample of the others. Where the call is inconclusive, the potency comes from a doubtful curve fit. The source holds several records for some structures; these can differ, active in one and inactive in another. Activity calls are given as the source filed them. Unless noted, calls come from the whole dose curve; as a rule, active = well fitted curve in the direction sought with a large enough effect in the repeat runs; inconclusive = weak or mixed curves; inactive = no such curve, though single readings can be large; an effect the other way counts as inactive or inconclusive.
# Assays:
# [1] = qHTS assay for small molecule agonists of the antioxidant response element (ARE) signaling pathway (AID 743202; active = well fitted activation curve with a large enough effect in the signal ratio in the repeat runs, not every such curve was filed as active; inconclusive = weak or mixed curves, or effect the other way; inactive = no such curve, though single readings can be large or run the other way; the % refers to the signal ratio; for activation: % is set by controls: 0 for no effect and ±100 for the full control effect); details: HepG2 ARE-bla reporter, beta-lactamase FRET, 16 h; activation: at 73.3 µM (top of the series) unless noted
# Method in brief: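 HepG2 ARE-bla reporter line, 2,000 cells/well; 5 h preincubation 37 C/5% CO2; compound (DMSO) 16 h 37 C; B/G FRET substrate 2 h RT; fluorescence intensity.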
# [2] = qHTS assay for small molecule activators of the heat shock response signaling pathway - cell viability counter screen (AID 743209); details: HSE-bla HeLa viability, CellTiter-Glo luminescence, 5 h; activity change, negative = cytotoxicity: at 62.6 µM (top of the series) unless noted; note: nearly all actives have a fitted effect of over 50% in size
# Method in brief: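 Cytotoxicity counter screen run in the same wells as the heat-shock bla reporter assay: HeLa HSE-bla cells, 5 h compound exposure at 37 C, viability read by CellTiter-Glo luminescence.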
# [3] = qHTS assay for small molecule activators of the heat shock response signaling pathway (AID 743210; active = well fitted activation curve with a large enough effect in the signal ratio in the repeat runs, with a control signal flat, not every such curve was filed as active; inconclusive = weak or mixed curves; the % refers to the signal ratio); details: HeLa HSE-bla reporter, beta-lactamase ratio, 5 h; activation: at 62.6 µM (top of the series) unless noted
# Method in brief: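 Beta-lactamase reporter read-out: FRET substrate fluorescence after 2.5 h at RT, following 5 h compound treatment at 37 C of HeLa cells carrying HSE-driven bla reporter; quantitative HTS format.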
# [4] = biological target: Peroxisome proliferator-activated receptor delta (Homo sapiens) (UniProt Q03181); test: qHTS assay to identify small molecule agonists of the peroxisome proliferator-activated receptor delta (PPARd) signaling pathway (AID 743212; calls by dose curve; for activation: % is set by controls: 0 for no effect and ±100 for the full control effect); details: HEK293H PPARd-UAS-bla, beta-lactamase FRET ratio, 17 h; activation: at 62.6 µM (top of the series) unless noted
# Method in brief: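 Read-out: beta-lactamase FRET fluorescence after 2 h room-temperature incubation with LiveBLAzer B/G substrate. Cells were HEK293H carrying a UAS-bla reporter for PPARd, treated at 37 C with DMSO-dissolved compounds.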
# [5] = qHTS assay to identify small molecule antagonists of the peroxisome proliferator-activated receptor delta (PPARd) signaling pathway - cell viability counter screen (AID 743213); details: PPARd-bla HEK293H viability, CellTiter-Glo luminescence, 17 h; viability change, negative = cytotoxic: at 62 µM (top of the series) unless noted; note: nearly all actives have a fitted effect of over 50% in size; for viability change, negative = cytotoxic: % is set by controls: 0 for no effect and ±100 for the full control effect
# Method in brief: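 HEK293H cells with the PPARd UAS-bla reporter, co-treated 17 h at 37 C with compounds and L165041 (300 nM final), were lysed with CellTiter-Glo. Luminescence indicated viable cell content.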
# [6] = biological target: Peroxisome proliferator-activated receptor delta (Homo sapiens) (UniProt Q03181); test: qHTS assay to identify small molecule antagonists of the peroxisome proliferator-activated receptor delta (PPARd) signaling pathway (AID 743215; active = well fitted inhibition curve with a large enough effect in the signal ratio in the repeat runs, not every such curve was filed as active; inconclusive = weak or mixed curves, or effect the other way; inactive = no such curve, though single readings can be large or run the other way; the % refers to the signal ratio;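 note: cells stimulated with agonist L165041 at 300 nM final during compound exposure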; for ratio activity, negative = inhibition: % is set by controls: 0 for no effect and ±100 for the full control effect); details: HEK293H PPARd-UAS-bla, beta-lactamase FRET ratio, antagonist, 17 h; ratio activity, negative = inhibition: at 62 µM (top of the series) unless noted
# Method in brief: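 Agonist L165041 (300 nM final) added with compound to PPARd-bla HEK293H UAS-bla reporter cells; 17 h incubation at 37 C. Read-out: LiveBLAzer FRET substrate, 2 h at room temperature, fluorescence intensity.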
# [7] = qHTS assay to identify small molecule agonists of the peroxisome proliferator-activated receptor delta (PPARd) signaling pathway - cell viability counter screen (AID 743211); details: PPARd-bla HEK293H viability, CellTiter-Glo luminescence, 17 h; activity change, negative = cytotoxicity: at 62.6 µM (top of the series); note: nearly all actives have a fitted effect of over 55% in size
# Method in brief: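 Viability was measured as CellTiter-Glo luminescence (30 min, room temperature) in the same wells as the beta-lactamase readout. GeneBLAzer PPARd UAS-bla HEK293H cells received compound after 5 h plating and were incubated 17 h at 37 C.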
# [8] = qHTS assay for small molecule agonists of the antioxidant response element (ARE) signaling pathway - cell viability counter screen (AID 743203; calls by dose curve; note: nearly all actives have a fitted effect of over 55% in size); details: ARE-bla HepG2 viability, CellTiter-Glo luminescence, 16 h; viability change, negative = cytotoxic: at 73.3 µM (top of the series)
# Method in brief: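 Viability counter screen: CellTiter-Glo luminescence, read after 30 min at room temperature, in ARE-bla HepG2 wells. Compound exposure lasted 16 h at 37C/5% CO2, following a 5 h pre-incubation of the cells after plating.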
# [9] = biological target: Bile acid receptor (Homo sapiens) (UniProt Q96RI1); test: qHTS assay to identify small molecule antagonists of the farnesoid-X-receptor (FXR) signaling pathway (AID 743217; active = well fitted inhibition curve with a large enough effect in the signal ratio in the repeat runs, not every such curve was filed as active; inconclusive = weak or mixed curves, or effect the other way; inactive = no such curve, though single readings can be large or run the other way; the % refers to the signal ratio); details: HEK293T FXR-UAS-bla, beta-lactamase ratio, CDCA-stimulated, 16 h; activity change, negative = inhibition: at 62.6 µM (top of the series) unless noted
# Method in brief: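 Antagonist mode: chenodeoxycholic acid at 50 uM final stimulates a UAS-driven beta-lactamase reporter in HEK 293T FXR-bla cells during 16 h, 37C compound exposure. Read-out is FRET substrate fluorescence after 2 h at room temperature.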
# Potency is the fitted concentration of half-maximal effect; tags give direction and shape of the fitted curve or compound fluorescence and quenching.
# Sequence of UniProt Q96RI1 (Q96RI1 whole entry, looked up): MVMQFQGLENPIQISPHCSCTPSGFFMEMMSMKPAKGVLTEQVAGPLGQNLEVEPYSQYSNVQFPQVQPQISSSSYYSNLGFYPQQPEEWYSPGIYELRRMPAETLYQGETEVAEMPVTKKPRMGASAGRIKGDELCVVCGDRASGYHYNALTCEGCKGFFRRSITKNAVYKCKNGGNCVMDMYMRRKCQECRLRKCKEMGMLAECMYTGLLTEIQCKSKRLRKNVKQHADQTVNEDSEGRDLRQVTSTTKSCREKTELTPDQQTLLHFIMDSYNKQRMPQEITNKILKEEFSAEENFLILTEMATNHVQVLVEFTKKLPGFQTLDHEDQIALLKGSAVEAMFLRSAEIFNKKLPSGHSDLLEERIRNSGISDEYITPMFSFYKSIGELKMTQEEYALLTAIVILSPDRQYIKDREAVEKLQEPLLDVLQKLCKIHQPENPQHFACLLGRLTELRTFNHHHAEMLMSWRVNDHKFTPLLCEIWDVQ
# Sequence of UniProt Q03181 (Q03181 whole entry, looked up): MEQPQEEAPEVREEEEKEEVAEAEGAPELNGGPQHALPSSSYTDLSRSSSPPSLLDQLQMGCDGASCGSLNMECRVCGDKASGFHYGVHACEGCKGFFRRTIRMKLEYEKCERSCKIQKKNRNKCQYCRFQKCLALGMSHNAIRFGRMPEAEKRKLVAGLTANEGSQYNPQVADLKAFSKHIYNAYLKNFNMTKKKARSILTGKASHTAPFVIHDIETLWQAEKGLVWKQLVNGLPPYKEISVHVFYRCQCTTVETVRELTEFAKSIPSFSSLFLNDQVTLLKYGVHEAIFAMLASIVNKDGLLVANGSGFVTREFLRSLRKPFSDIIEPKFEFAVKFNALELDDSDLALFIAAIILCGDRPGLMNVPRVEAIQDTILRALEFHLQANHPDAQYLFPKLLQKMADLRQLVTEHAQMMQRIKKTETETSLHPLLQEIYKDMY
smiles,measurement,setting,value
CCCCCCC[CH2][Sn]([Cl])([Cl])[CH2]CCCCCCC,Potency,[1],active: 0.863 µM
same,Potency,[2],active: 30.9 µM
same,Potency,[3],inconclusive: 3.47 µM
same,activation,[4],inconclusive: -10%
same,Potency,[5],"inconclusive: 34.7 µM [cytotoxic, partial curve, poor fit]"
same,Potency,[6],"inconclusive: 48.9 µM [inhibitor, partial curve]"
ClC1=C(Cl)C2(Cl)C(CBr)CC1(Cl)C2(Cl)Cl (centres undefined),Potency,[1],inactive
same,Potency,[2],active: 54.9 µM
same,Potency,[3],inconclusive: 57.1 µM
same,Potency,[7],inconclusive: 38.9 µM [cytotoxic]
CC(Cc1ccc(C(C)(C)C)cc1)CN1C[C@@H](C)O[C@@H](C)C1 (some centres undefined),activation,[1],inconclusive: 35.7%
same,Potency,[8],"inconclusive: 77 µM [cytotoxic, single point]"
same,Potency,[7],inconclusive: 24.5 µM [cytotoxic]
same,Potency,[5],inactive
same,Potency,[6],inactive
CCCCCCCCCCCCBr,Potency,[1],inconclusive: 68.6 µM [single point]
same,Potency,[8],"inconclusive: 27.3 µM [cytotoxic, partial curve, poor fit]"
same,Potency,[3],inactive
same,"ratio activity, negative = inhibition",[6],inconclusive: -22.4%
CN(C)[C@@H]1C(=O)C(C(N)=O)=C(O)[C@@]2(O)C(=O)C3=C(O)c4c(O)cccc4[C@@](C)(O)[C@H]3C[C@@H]12,activation,[1],inconclusive: -11.9%
same,Potency,[2],inactive
same,Potency,[3],inconclusive: 28.7 µM
same,Potency,[4],"inconclusive: 43.8 µM [rising, partial curve]"
same,Potency,[6],inconclusive: 39 µM [partial curve]
same,"activity change, negative = inhibition",[9],inconclusive: 7.07%
C=CCC1=C(C)C(OC(=O)C2C(C=C(C)C)C2(C)C)CC1=O (centres undefined),Potency,[1],inconclusive: 51.5 µM [partial curve]
same,Potency,[2],active: 46.3 µM
same,Potency,[3],"inconclusive: 52.8 µM [falling, partial curve]"
same,Potency,[5],"inconclusive: 3.68 µM [rising, full curve, poor fit]"
same,Potency,[9],inconclusive: 59 µM
O=[N+]([O-])c1ccc(Cl)c([N+](=O)[O-])c1,Potency,[1],"inconclusive: 12.4 µM [falling, full curve] and inconclusive: 7.7 µM [falling, full curve]"
same,Potency,[2],active: 9.92 µM and active: 4.9 µM
same,Potency,[3],inconclusive: 14 µM and inconclusive: 8.07 µM
same,Potency,[5],active: 24.9 µM and active: 19.5 µM
same,Potency,[6],"inconclusive: 24.9 µM [cytotoxic] and inconclusive: 30.9 µM [cytotoxic, full curve]"
O=[N+]([O-])c1cc(C(F)(F)F)c(Cl)c([N+](=O)[O-])c1Nc1ncc(C(F)(F)F)cc1Cl,Potency,[1],"inconclusive: 0.172 µM [falling, full curve]"
same,Potency,[2],active: 6.16 µM
same,Potency,[3],inconclusive: 10.2 µM
same,Potency,[7],active: 8.71 µM
same,Potency,[4],"inconclusive: 0.0776 µM [falling, full curve]"
same,Potency,[5],active: 6.16 µM
same,Potency,[6],"inconclusive: 21.9 µM [cytotoxic, full curve, poor fit]"
same,Potency,[9],"inconclusive: 61.6 µM [cytotoxic, single point]"
[Cd+2].[Cl-].[Cl-],Potency,[1],"inconclusive: 2.75 µM [falling, full curve] and inconclusive: 1.22 µM [falling, full curve]"
same,Potency,[2],"inconclusive: 55.4 µM [cytotoxic, single point] and inconclusive: 54.9 µM [cytotoxic, single point]"
same,Potency,[3],inconclusive: 3.3 µM and inconclusive: 2.86 µM
same,Potency,[7],active: 2.21 µM and active: 1.38 µM
same,Potency,[5],active: 7.83 µM and active: 1.23 µM
NCCCNCCCN,Potency,[1],"inconclusive: 6.21 µM [rising, full curve, poor fit]"
same,Potency,[2],"inconclusive: 0.0063 µM [cytotoxic, full curve, poor fit]"
same,Potency,[7],"inconclusive: 55.8 µM [cytotoxic, single point]"
same,Potency,[5],active: 49.7 µM
same,Potency,[9],"inconclusive: 62.6 µM [inhibitor, single point]"
NNC(N)=S,activation,[1],inconclusive: 19% [at 94.8 µM]
same,Potency,[2],active: 40.4 µM
same,Potency,[3],inconclusive: 12.3 µM and inconclusive: 45.3 µM [activator]
same,Potency,[7],"inconclusive: 36 µM [cytotoxic, partial curve] and inconclusive: 77.6 nM [cytotoxic, full curve, poor fit]"
same,Potency,[4],"inconclusive: 57.1 µM [rising, single point]"
same,Potency,[5],active: 8.07 µM
same,Potency,[9],"inconclusive: 36 µM [rising, partial curve]"
Cc1nnc2n1-c1sc(CCc3ccc(CC(C)C)cc3)cc1C(c1ccccc1Cl)=NC2C (centres undefined),Potency,[1],"inconclusive: 33.5 µM [falling, single point]"
same,Potency,[2],active: 29.8 µM
same,Potency,[3],inconclusive: 33.5 µM [single point]
same,Potency,[4],"inconclusive: 11.9 µM [rising, partial curve, poor fit]"
same,Potency,[5],"inconclusive: 33.5 µM [cytotoxic, single point]"
same,Potency,[6],inconclusive: 29.8 µM
same,Potency,[9],"inconclusive: 33.5 µM [inhibitor, single point]"
CC1(C)CC(=O)CC(C)(C)N1[O],Potency,[1],inactive
same,Potency,[2],inactive
same,Potency,[3],inactive
C=C(Cl)CSC(=S)N(CC)CC,Potency,[1],"inconclusive: 2.11 µM [rising, full curve]"
same,Potency,[2],"inconclusive: 0.0107 µM [cytotoxic, full curve, poor fit]"
same,Potency,[3],inconclusive: 53.5 µM [activator]
same,"ratio activity, negative = inhibition",[6],inconclusive: -40.7% [at 80.4 µM]
O=C(CCl)c1ccc(Cl)cc1Cl,Potency,[1],inconclusive: 54.2 µM and active: 5.31 µM
same,Potency,[2],"inconclusive: 43.4 µM [cytotoxic, partial curve, poor fit] and active: 8.41 µM"
same,Potency,[7],"inconclusive: 27.4 µM [cytotoxic, partial curve, poor fit] and active: 18.8 µM"
same,Potency,[4],"inconclusive: 29.8 µM [rising, partial curve]"
same,activation,[4],inconclusive: -2.39%
same,Potency,[5],active: 29.8 µM
same,Potency,[9],inconclusive: 29.8 µM [partial curve]
NNC(=S)NN,Potency,[1],"inconclusive: 49.9 µM [rising, partial curve]"
same,Potency,[2],"inconclusive: 7.11 µM [cytotoxic, full curve]"
same,Potency,[3],active: 1.79 µM and active: 4.36 µM
same,Potency,[7],"inconclusive: 31.8 µM [cytotoxic, partial curve] and inconclusive: 54.9 µM [cytotoxic, single point]"
same,Potency,[4],inactive
same,Potency,[6],"inconclusive: 11 µM [rising, full curve, poor fit]"
CC1(C)C(C=C(Cl)Cl)C1C(=O)OC(C#N)c1ccc(F)c(Oc2ccccc2)c1 (centres undefined),Potency,[1],inactive
same,Potency,[2],inactive
same,Potency,[3],inconclusive: 51.9 µM
ClC1=C(Cl)[C@]2(Cl)[C@H]3[C@H]([C@@H]4C=C[C@H]3C4)[C@@]1(Cl)C2(Cl)Cl,Potency,[1],"inconclusive: 21.7 µM [rising, partial curve, poor fit]"
same,Potency,[2],active: 24.5 µM
same,Potency,[3],inconclusive: 50.9 µM
same,Potency,[7],active: 15.5 µM
same,Potency,[4],inconclusive: 61.6 µM
S=C(SSC(=S)N1CCCCC1)N1CCCCC1,Potency,[1],"inconclusive: 0.0596 µM [rising, full curve, poor fit]"
same,Potency,[2],active: 0.106 µM
same,Potency,[3],inconclusive: 0.0406 µM
same,Potency,[4],"inconclusive: 0.596 µM [rising, full curve, poor fit]"
same,Potency,[5],active: 0.168 µM
same,Potency,[6],"inconclusive: 0.298 µM [rising, full curve]"
same,Potency,[9],"inconclusive: 0.266 µM [rising, full curve]"
CC1(C)[C@H](/C=C2\CCSC2=O)[C@@H]1C(=O)OCc1coc(Cc2ccccc2)c1,Potency,[1],"inconclusive: 15.4 µM [falling, partial curve]"
same,Potency,[8],"inconclusive: 6.86 µM [rising, full curve, poor fit]"
same,Potency,[3],inconclusive: 33.4 µM
same,Potency,[6],"inconclusive: 61.6 µM [activator, single point]"
O=[N+]([O-])c1ccc(Cl)c(Cl)c1Cl,Potency,[1],"inconclusive: 3.02 µM [rising, full curve]"
same,Potency,[8],inactive
same,Potency,[4],inactive
CCCCC/C=C\C/C=C\C/C=C\C/C=C\CCCC(=O)NCC(=O)O,activation,[1],inconclusive: 20.8%
same,Potency,[2],"inconclusive: 33.5 µM [cytotoxic, single point]"
same,Potency,[3],inconclusive: 33.5 µM [single point]
same,Potency,[7],"inconclusive: 33.5 µM [cytotoxic, single point]"
same,Potency,[4],inconclusive: 33.5 µM
same,Potency,[5],"inconclusive: 8.41 µM [cytotoxic, partial curve, poor fit]"
same,Potency,[6],"inconclusive: 0.237 µM [fluorescent, full curve, poor fit]"
Brc1ccc(Oc2cc(Br)c(Br)cc2Br)c(Br)c1,Potency,[1],inactive
same,Potency,[8],"inconclusive: 68.6 µM [cytotoxic, partial curve, poor fit] and inconclusive: 30.9 µM [cytotoxic, partial curve, poor fit]"
same,Potency,[7],"inconclusive: 49 µM [cytotoxic, partial curve] and active: 22 µM"
CCOC(=O)[C@]1(c2ccccc2)Oc2ccccc2[C@@H]1N,Potency,[1],inconclusive: 68.6 µM
same,Potency,[8],"inconclusive: 68.6 µM [cytotoxic, single point]"
same,Potency,[7],active: 54.9 µM
same,"viability change, negative = cytotoxic",[5],inconclusive: -39.8% [cytotoxic]
same,"activity change, negative = inhibition",[9],inconclusive: -28.1%

# From PubChem BioAssay (Tox21)
